In article PMC4336329 (PLoS ONE, 2015):
The campaign covered roughly 310,000 compounds. About 14,000 (4.5%) showed an effect of 50% or more. Effects have a minus sign here. The list shows a part of the results.

target: human ether-à-go-go-related gene (hERG) potassium channel (human, UniProt Q12809); experiment: primary screen, population patch clamp on CHO cells stably expressing hERG
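Further: peak tail current of the secondary pulse compared with the same well before compound.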

Sequence of human ether-à-go-go-related gene (hERG) potassium channel (Q12809 whole entry, looked up): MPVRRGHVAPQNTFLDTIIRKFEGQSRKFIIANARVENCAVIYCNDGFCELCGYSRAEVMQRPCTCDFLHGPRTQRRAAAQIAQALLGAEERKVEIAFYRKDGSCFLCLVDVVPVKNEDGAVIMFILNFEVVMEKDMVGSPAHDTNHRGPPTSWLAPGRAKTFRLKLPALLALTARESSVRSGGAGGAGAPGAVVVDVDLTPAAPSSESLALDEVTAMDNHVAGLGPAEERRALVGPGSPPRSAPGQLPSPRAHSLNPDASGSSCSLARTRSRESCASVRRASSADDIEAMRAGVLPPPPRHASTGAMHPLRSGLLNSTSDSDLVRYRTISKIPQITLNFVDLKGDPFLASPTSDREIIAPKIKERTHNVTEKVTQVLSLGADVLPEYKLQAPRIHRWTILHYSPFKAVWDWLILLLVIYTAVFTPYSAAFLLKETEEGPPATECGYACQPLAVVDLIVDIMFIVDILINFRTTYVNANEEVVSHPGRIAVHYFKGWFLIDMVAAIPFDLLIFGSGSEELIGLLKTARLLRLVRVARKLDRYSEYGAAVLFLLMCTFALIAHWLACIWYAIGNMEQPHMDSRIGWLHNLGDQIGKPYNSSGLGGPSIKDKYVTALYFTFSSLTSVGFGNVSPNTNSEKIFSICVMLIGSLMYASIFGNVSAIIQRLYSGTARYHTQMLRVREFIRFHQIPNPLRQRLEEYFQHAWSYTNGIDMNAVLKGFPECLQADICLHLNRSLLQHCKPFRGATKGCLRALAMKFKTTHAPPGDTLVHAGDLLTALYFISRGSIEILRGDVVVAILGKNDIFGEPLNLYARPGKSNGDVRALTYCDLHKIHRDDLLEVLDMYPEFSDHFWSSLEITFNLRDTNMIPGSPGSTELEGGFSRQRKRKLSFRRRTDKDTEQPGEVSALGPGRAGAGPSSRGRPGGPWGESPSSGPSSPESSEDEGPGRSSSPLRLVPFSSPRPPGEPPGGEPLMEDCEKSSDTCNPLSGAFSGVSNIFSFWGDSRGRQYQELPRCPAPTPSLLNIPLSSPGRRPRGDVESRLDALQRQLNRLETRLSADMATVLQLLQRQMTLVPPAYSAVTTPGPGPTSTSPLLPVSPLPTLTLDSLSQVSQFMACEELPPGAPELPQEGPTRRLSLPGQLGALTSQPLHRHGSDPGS

Going from `O=C(CSC1=NCCS1)Nc1ccc(S(=O)(=O)NC2CCCCC2)cc1` to `O=C(Nn1cnc2ccccc2c1=O)C1CCCCC1`, the “hERG current change (%, negative = inhibition) at 10uM” value rises from -8.65% to -2.26%.

First: CCN(CC(=O)Nc1ccc2c(c1)OCCO2)C(=O)/C=C/c1ccccc1
Second: CN(C(=O)COC(=O)/C=C/c1cn(-c2ccccc2)nc1-c1ccc2c(c1)OCCO2)C1CCS(=O)(=O)C1 (stereo not drawn)
The “hERG current change (%, negative = inhibition) at 10uM” value of the first is higher: 9.54% for the first, -3.86% for the second.

Compared with `CCCc1ncc(C(O)c2ccccc2OC)n1C` (stereo not drawn), `COc1ccc(C(C)C)cc1S(=O)(=O)n1ccnc1C` is lower in “hERG current change (%, negative = inhibition) at 10uM” value: 14.7% for the first, 5.01% for the second.

Going from `O=C(N/C(=C/c1ccc(Cl)cc1)C(=O)N1CCCCC1)c1ccco1` to `COc1ccc(/C=C(/NC(=O)c2ccccc2)C(=O)N2CCCC2)cc1OC`, the “hERG current change (%, negative = inhibition) at 10uM” value rises from 0.118% to 10.4%.

Going from `COC(=O)Nc1csc2c1NC(=O)CCCC2` to `Cc1ccc(NC(=O)C2CCCN2C(=O)c2cccs2)cc1C` (stereo not drawn), the “hERG current change (%, negative = inhibition) at 10uM” value falls from 23.4% to -25.5%.

Going from `Cc1cccc(-n2c(C)cc(C(=S)N3CCOCC3)c2C)c1C` to `CCc1ccc(-c2nc(SCC(=O)N3CCOCC3)n[nH]2)cc1`, the “hERG current change (%, negative = inhibition) at 10uM” value rises from -7.9% to 13.6%.

Compared with `CCN(CC)c1c([N+](=O)[O-])ncn1C`, `CCOC(=O)c1cc2sc(C)cc2n1C(C)C(=O)OCC` (stereo not drawn) is higher in “hERG current change (%, negative = inhibition) at 10uM” value: -16.8% for the first, -9.57% for the second.

Going from `CCCCC(=O)N/N=C/c1c(O)n(-c2ccccc2)c(=O)[nH]c1=O` to `O=C(CC(=O)N/N=C\c1ccccc1[N+](=O)[O-])NCCc1ccccc1`, the “hERG current change (%, negative = inhibition) at 10uM” value falls from 15.7% to 3.08%.

Compared with `Cc1cccc(Oc2ccc3c(c2)cc(C(=O)O)n3C)c1`, `COc1ccc(-c2cc3onc(-c4c(Cl)cccc4Cl)c3c(=O)n2C)cc1` is higher in “hERG current change (%, negative = inhibition) at 10uM” value: -0.114% for the first, 9.03% for the second.

Going from `O=C(NCC(=O)N1CCC2(CC1)NCCc1[nH]cnc12)c1ccc2ccccc2c1` to `CC(C)c1ccc(NC2CCCN(C(=O)c3cccc(N4CCNC4=O)c3)C2)cc1` (stereo not drawn), the “hERG current change (%, negative = inhibition) at 10uM” value falls from 11.7% to 2.24%.

Compared with `COc1ccc(Cl)cc1C(=O)OCC(=O)NCCNC(=O)COC(=O)c1cc(Cl)ccc1OC`, `COc1cc(CC(=O)OCC(=O)Nc2ccc3c(c2)OCCO3)cc(OC)c1OC` is higher in “hERG current change (%, negative = inhibition) at 10uM” value: -71.6% for the first, 26% for the second.

First: Cc1noc(C)c1S(=O)(=O)Nc1ccc(C(=O)NCCc2ccccc2)cc1
Second: O=C(NCCc1ccc(C(F)(F)F)cc1)C1CC(=O)N(Cc2ccccc2)C1 (stereo not drawn)
The “hERG current change (%, negative = inhibition) at 10uM” value of the first is higher: 4.12% for the first, -23.3% for the second.

Going from `CS(=O)(=O)NCc1nnc(SCc2c(F)cccc2Cl)o1` to `COc1ccccc1OCc1nnc(SCCN2CCOCC2)o1.O=C(O)C(=O)O`, the “hERG current change (%, negative = inhibition) at 10uM” value falls from -1.23% to -1.58%.

Compared with `CCOc1ccc2nc(-c3ccccc3)nc(SCC(=O)Nc3ncc(C)s3)c2c1`, `COc1ccc2c(C)cc(SCC(=O)Nc3ncc(Cl)cc3Cl)nc2c1` is lower in “hERG current change (%, negative = inhibition) at 10uM” value: -0.463% for the first, -17.5% for the second.

Going from `Cc1ccccc1N1CC(C(=O)Nc2nnc(SCC(=O)Nc3nccs3)s2)CC1=O` (stereo not drawn) to `Cc1ccccc1NC(=O)CSc1nc(N)c(C#N)c(-c2cccs2)c1C#N`, the “hERG current change (%, negative = inhibition) at 10uM” value falls from 10.4% to 6%.

Going from `Cc1cc(N/N=C/c2ccc(O)cc2O)c2ccccc2n1` to `c1ccc(-c2nc(N3CCCC3)nc3ccccc23)cc1`, the “hERG current change (%, negative = inhibition) at 10uM” value rises from 4.97% to 8.87%.

First: COc1ccc(CCNc2ccc(C(CC(N)=O)NC(=O)Cc3ccc(Br)cc3)cc2[N+](=O)[O-])cc1 (stereo not drawn)
Second: COc1ccc(CC(=O)OCC(=O)c2ccc(S(=O)(=O)N3CCCCC3)cc2)cc1
The “hERG current change (%, negative = inhibition) at 10uM” value of the first is higher: 4.07% for the first, -14.3% for the second.

Going from `COc1ccc(-c2ccc(=O)n(Cc3cccc(Cl)c3)n2)cc1` to `COc1ccc(C(=O)Nc2ccccc2-c2nnn(CC(=O)NCc3ccco3)n2)cc1`, the “hERG current change (%, negative = inhibition) at 10uM” value rises from 1.31% to 14.7%.

Going from `Cc1ncccc1C(=O)N1CCCC(CCC(=O)N2CCN(c3ccccn3)CC2)C1` (stereo not drawn) to `Cc1cccc(NC(=O)c2sc3ncn(CC(=O)N4CCN(c5ccccn5)CC4)c(=O)c3c2C)c1`, the “hERG current change (%, negative = inhibition) at 10uM” value falls from 15.2% to -61.4%.

First: NC(=O)c1cc(NC(=O)CCc2nc3ccccc3s2)cc(C(N)=O)c1
Second: CCOC(=O)c1nnn(CC(=O)NC(=O)Nc2ccccc2)c1C(=O)OCC
The “hERG current change (%, negative = inhibition) at 10uM” value of the first is higher: 22.7% for the first, -15.9% for the second.

First: COC(=O)c1ccc(C(NC(=O)OCc2ccccc2)/C(F)=C/[C@@H](C)C(=O)NCc2ccc(-c3ccccc3)cc2)cc1 (stereo partly drawn)
Second: CN(Cc1ccc(F)cc1)C(=O)C(Cc1ccccc1)NC(=O)c1ccccc1 (stereo not drawn)
The “hERG current change (%, negative = inhibition) at 10uM” value of the first is higher: 15.3% for the first, 10.3% for the second.

Compared with `O=C(NCC1COc2ccccc2O1)C1CCCN(S(=O)(=O)c2cccc3cccnc23)C1` (stereo not drawn), `COc1ccc(S(=O)(=O)Nc2ccccc2OC)cc1NC(=O)c1cc2ccccc2oc1=O` is higher in “hERG current change (%, negative = inhibition) at 10uM” value: -18.7% for the first, 8.54% for the second.

Compared with `COc1ccc([C@H]2CC(=O)C=C(c3cc(C)ccc3OC)C2)cc1`, `COc1cccc(OC)c1OCCCOc1c(OC)cccc1OC` is higher in “hERG current change (%, negative = inhibition) at 10uM” value: 2.17% for the first, 2.41% for the second.

First: CSc1nsc(SCC(=O)Nc2ccc3c(c2)OCCO3)n1
Second: CC(C)CNS(=O)(=O)c1ccc(C(=O)Nc2ccc3c(c2)OCCO3)cc1
The “hERG current change (%, negative = inhibition) at 10uM” value of the first is lower: -4.72% for the first, 18.3% for the second.

First: CCCCn1nnc(NC(=O)c2cc3ccccc3o2)n1
Second: CCOC(=O)C1=C(C)Nc2ccccc2N=C1NC(=O)c1cc(C)on1
The “hERG current change (%, negative = inhibition) at 10uM” value of the first is higher: 5.44% for the first, -33% for the second.

Compared with `Cc1cc(C)c2nc(-c3ccccn3)cc(C(=O)Nc3cc(C)on3)c2c1`, `Cc1c(NS(=O)(=O)c2cc(C(=O)NCc3ccco3)cc(Cl)c2Cl)c(=O)n(-c2ccccc2)n1C` is lower in “hERG current change (%, negative = inhibition) at 10uM” value: 10.4% for the first, -39.5% for the second.

Compared with `CC1(C)OC(=O)C(=NNc2ccccc2[N+](=O)[O-])C(=O)O1`, `O=C(NCCNc1ccc([N+](=O)[O-])cc1C(F)(F)F)c1ccccc1` is lower in “hERG current change (%, negative = inhibition) at 10uM” value: 24.3% for the first, -49.1% for the second.

First: Cn1c(CNC(=O)c2ccco2)nnc1SCC(=O)Nc1c(F)cc(F)cc1Br
Second: Cc1cc(C)cc(NC(=S)N2CCN(C(=O)c3ccco3)CC2)c1
The “hERG current change (%, negative = inhibition) at 10uM” value of the first is higher: 13.7% for the first, -0.347% for the second.

First: COc1ccc(CNCCSc2nnnn2C)c(OC)c1OC.Cl
Second: Cc1ccc(C(=O)C(C)OC(=O)Cn2cnc3c2c(=O)n(C)c(=O)n3C)cc1 (stereo not drawn)
The “hERG current change (%, negative = inhibition) at 10uM” value of the first is higher: 7.83% for the first, -0.153% for the second.

Going from `C=CCN=C1N[C@@H](c2ccccc2)C(C(=O)OC)=C(C)N1CC` to `C#CCNC(=O)C1=C[C@H](c2ccccc2)[C@@H](CCCO)[C@H](OCC)O1`, the “hERG current change (%, negative = inhibition) at 10uM” value rises from 1.27% to 19.9%.

Going from `Cn1ncc(Cl)c1C(=O)N1CCN(c2cccc(Cl)c2)CC1` to `CC(=O)N1CCCN(C(=O)c2cc(COc3c(F)cccc3F)on2)CC1`, the “hERG current change (%, negative = inhibition) at 10uM” value rises from -8.7% to 6.58%.

First: CCCCCN1C(C)=CC(=C(C#N)C#N)C=C1C
Second: COCc1c(Br)c(C)nc(OCC(=O)N/N=C/c2cc(C)n(-c3ccc([N+](=O)[O-])cc3)c2C)c1C#N
The “hERG current change (%, negative = inhibition) at 10uM” value of the first is higher: 16.3% for the first, 6.63% for the second.

First: Cn1cccc1/C=C(/C#N)c1ccc(F)cc1
Second: CC(Nc1cccc(F)c1)C(=O)Nc1ccc(S(N)(=O)=O)cc1 (stereo not drawn)
The “hERG current change (%, negative = inhibition) at 10uM” value of the first is lower: -5.5% for the first, 19.3% for the second.

First: COc1ccccc1-n1cc(C(=O)NCC(=O)NCc2ccc(F)cc2)c2ccccc2c1=O
Second: COC(=O)c1ccc2c(=O)n(-c3ccccc3)c(SCN3C(=O)c4ccccc4C3=O)nc2c1
The “hERG current change (%, negative = inhibition) at 10uM” value of the first is lower: -19.5% for the first, 11% for the second.

Compared with `CC(C)C(=O)N1CCC(c2nc(-c3ccc(S(=O)(=O)N4CCN(C)CC4)cc3)no2)CC1`, `CC(C)NC(=O)NC(=O)COC(=O)c1cccc(S(=O)(=O)N2CCCCC2)c1` is lower in “hERG current change (%, negative = inhibition) at 10uM” value: 13.2% for the first, 6.5% for the second.

Going from `CC(C)CNC(=O)COC(=O)CCC(=O)c1cccs1` to `CC(=O)N1N=C(c2cccs2)CC1c1ccc(C)o1` (stereo not drawn), the “hERG current change (%, negative = inhibition) at 10uM” value falls from 18.7% to 7.07%.

Compared with `Cc1cc(NC(=O)C2CC=CCC2C(=O)O)no1` (stereo not drawn), `COC(=O)c1ccccc1NC(=O)Cn1ccnc1` is lower in “hERG current change (%, negative = inhibition) at 10uM” value: -1.9% for the first, -8.31% for the second.

Compared with `C[C@]12CCC(=O)C=C1CC[C@@H]1C2[C@H](O)C[C@]2(C)C(=O)CCC12` (stereo partly drawn), `C[C@@H]1O[C@@H](O[C@H]2C[C@@H](O)[C@]3(CO)[C@H]4[C@H](O)C[C@]5(C)[C@@H](C6=CC(=O)OC6)CC[C@]5(O)[C@@H]4CC[C@]3(O)C2)[C@H](O)[C@H](O)[C@H]1O.O` is lower in “hERG current change (%, negative = inhibition) at 10uM” value: 18% for the first, 11.1% for the second.

First: CC(NC(=O)CN(c1ccc(Cl)cc1)S(C)(=O)=O)c1ccccc1 (stereo not drawn)
Second: O=C(CN1C(=O)CSc2ccc(C(F)(F)F)cc21)Nc1ccccc1
The “hERG current change (%, negative = inhibition) at 10uM” value of the first is higher: 8.32% for the first, 4.01% for the second.

Going from `Cc1ccc(OCC(=O)O/N=C(\N)c2cccnc2)cc1` to `O=C(Nc1ccccc1Cl)c1ccn[nH]1`, the “hERG current change (%, negative = inhibition) at 10uM” value falls from 10.4% to 0.778%.

Going from `N#Cc1c(N)nc2c(c1N)CC(=O)N2c1ccccc1-c1ccccc1` to `Cc1c(NS(=O)(=O)c2ccc3c(c2)c(=O)n(C)c(=O)n3C)c(=O)n(-c2ccccc2)n1C`, the “hERG current change (%, negative = inhibition) at 10uM” value falls from -0.581% to -4.9%.

First: COc1cccc(OCCCN2CCCCC2)c1
Second: CC1CCCN(CCS(=O)(=O)c2ccccc2)C1 (stereo not drawn)
The “hERG current change (%, negative = inhibition) at 10uM” value of the first is lower: -16.2% for the first, 3.59% for the second.
